The assay has as its target IN-box^Arg847Ala, point mutant in the context of the [Aurora B/IN-box] complex (X. laevis, UniProt O13024 790-856, IN-box^Arg847Ala). Kind of assay: cell-based or functional assay.

B1: Aurora B ([…] aa) from X. laevis, phosphorylated at Thr248, as in [Aurora B/IN-box]^all-P (domain or fragment)
chain: not shown
modifications: phosphothreonine at 248
Regarding B1, the “kcat (s^–1) of [Aurora B/IN-box^Arg847Ala], pyruvate kinase/lactate dehydrogenase-coupled kinase assay” value was 16 s^–1 and the “kcat/KM (M^–1 s^–1) of [Aurora B/IN-box^Arg847Ala], pyruvate kinase/lactate dehydrogenase-coupled kinase assay” value is 19000 M^–1 s^–1.
